Measurements from PubChem BioAssay AID504706 (National Center for Advancing Translational Sciences (NCATS), 2011).
About 200 (0.062%) of roughly 320,000 compounds were called active. Inconclusive results, whose numbers are uncertain, are shown with a selection of clear calls. Calls follow the shape of the dose curve; as a rule, active = well fitted activation curve with a large enough effect; inconclusive = small, poorly fitted or top-dose-only effect; inactive = no such curve, though single readings can be large or run the other way. No potency is given beside an inconclusive call; the fits are too rough.

Assay: qHTS assay for re-activators of p53 using a Luc reporter; also: nearly all actives have a fitted effect of over 45% in size; as to activity change, positive = activation: % of control where 0% means no effect
Conditions: H1299 p53-A138V BP100-luciferase reporter, luminescence, 24 h; series mostly up to 92.2 µM; activity change, positive = activation: at the top concentration
Method in brief: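 p53-null H1299 cells stably carrying temperature-sensitive p53-A138V and a BP100-luciferase reporter were pinned with compounds (4-point, 1:5 series) and held 24 hrs at 37 deg C. Luminescence was read 10 min after detection reagent.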
Potency is read from the fitted curve at half-maximal effect; tags tell the direction and shape of the fitted curve.

| SMILES | Potency | activity change, positive = activation |
| --- | --- | --- |
| CCCCOC(=O)Nc1nc(C)c(C(=O)OCC)s1 | inconclusive [activator, single point] |  |
| O=C(Cc1cn2ccsc2n1)OCc1nc2ccccc2s1 | inconclusive [activator, single point] |  |
| CCN(CC)C(=O)CSc1nnc2sc3ccccc3n12 | inconclusive [activator, full curve, poor fit] |  |
| O=C(COc1c(F)c(F)cc(F)c1F)NC(=O)NC1CCCC1 |  | inactive: 0.65% |
| C/C(=N\Nc1ccc([N+](=O)[O-])cc1)c1cccc(N)c1 |  | inactive: 9.3% |
| Cc1onc(-c2ccccc2)c1C(=O)Nc1nc(-c2ccccc2)cs1 | inconclusive [activator, single point] |  |
| Cc1ccc(CSc2ccc(-c3ccco3)nn2)cc1 | inconclusive [activator, partial curve, poor fit] |  |
| Cc1cc(C)c2c(N)c(-c3nc4ccccc4[nH]3)sc2n1 | inconclusive [activator, partial curve, poor fit] |  |
| Cc1ccc(-c2csc(-c3c[nH]c4ccccc34)n2)c(C)c1 | inconclusive [activator, partial curve, poor fit] |  |
| Cc1ccc(S(=O)(=O)Nc2ccc(C(=O)NCCCn3ccnc3)cc2)cc1[N+](=O)[O-] | inconclusive [activator, single point] |  |
| O=C1C(Nc2ccccc2)=C(N2CCCCC2)C(=O)c2ccccc21 |  | inactive: -3.2% |
| O=C(/C=C/c1ccccc1[N+](=O)[O-])N1CCOCC1 | inconclusive [activator, single point] |  |
| COc1cccc(NC(=O)C(=O)NCCC2CCCCN2S(=O)(=O)c2cccs2)c1 (configuration not stated) | inconclusive [activator, partial curve, poor fit] |  |
| C=CC(=O)Nc1sc2c(c1C(N)=O)CCCC2 |  | inactive: -26.5% |
| CC(Nc1nc(N2CCCC2)nc2ccccc12)c1ccccc1 (configuration not stated) | inconclusive [activator, partial curve, poor fit] |  |
| Cc1ccc(C(=O)Nc2nnc(-c3ccco3)o2)cc1C | inconclusive [activator, full curve, poor fit] |  |
| FC(F)(F)c1ccc(-c2nc(=S)[nH][nH]2)cc1 |  | inactive: 3.33% |
| Cn1c(=O)c2c(ncn2CC(=O)OCC(=O)Nc2sccc2C(N)=O)n(C)c1=O |  | inactive: 0.306% |
| CC1CCN(C(=O)NC(=O)c2ccc(Cl)cc2)CC1 | inconclusive [activator, single point] |  |
| O=C(c1ccc(CSc2ccccc2)cc1)N1CCCCCC1 | inconclusive [activator, partial curve] |  |
| O=C(Cc1ccccc1)Nc1ccc(CN2CCOCC2)cc1 | inconclusive [activator, partial curve, poor fit] |  |
| O=c1[nH]c(Nc2nc3ccccc3o2)nc2c1CCCC2 | inconclusive [activator, partial curve, poor fit] |  |
| O=C(O)C(Cc1ccccc1)Nc1ccc([N+](=O)[O-])cc1[N+](=O)[O-] (configuration not stated) | inconclusive [activator, full curve, poor fit] |  |

| SMILES | Potency | activity change, positive = activation |
| --- | --- | --- |
| Cc1cccc(/C(N)=N/OC(=O)CCCc2ccccc2)c1 | inconclusive [activator, partial curve, poor fit] |  |
| COC(=O)c1c(-c2ccccc2)csc1NC1=NS(=O)(=O)c2ccccc21 | inconclusive [activator, full curve, poor fit] |  |
| O=C(COC(=O)c1ccccc1O)Nc1ccc(OC(F)F)cc1 | inconclusive [activator, single point] |  |
| COc1ccc(OCc2cc(C(=O)N3CCCCCC3)no2)c(Cl)c1 | inconclusive [activator, full curve, poor fit] |  |
| CCOC(=O)CCSc1nc(C)c2cc(C)c(C)cc2n1 | inconclusive [activator, full curve, poor fit] |  |
| S=c1[nH]c2cc(-c3ccccc3)ccc2o1 | inconclusive [activator, partial curve, poor fit] |  |
| COc1ccc(C2C3=C(CCCC3=O)Nc3nc(C(F)(F)F)nn32)c(OC)c1OC (configuration not stated) | inconclusive [activator, partial curve, poor fit] |  |
| COc1ccc(C=C(c2nc3ccccc3s2)c2nc3ccccc3s2)cc1O | inconclusive [activator, partial curve, poor fit] |  |
| COc1ccc(C2c3[nH]c4ccccc4c3CCN2Cc2cccn2-c2ncccn2)cc1C (configuration not stated) |  | inactive: 7.75% |
| COC(=O)c1ccc2nc(Nc3nc4ccc(F)cc4s3)sc2c1 |  | inactive: -32% |
| CCn1c(Cc2cccn2C)nnc1SCC(=O)c1ccc(C)cc1 | inconclusive [activator, partial curve, poor fit] |  |
| Cc1ccc(S(=O)(=O)N2CCN(C(=O)COC(=O)c3ccc(Cl)nc3)CC2)c(C)c1 |  | inactive: -2.19% |
| CC(C)c1ccc(NC(=O)C(c2ccccc2)N2CC(=O)Nc3ccccc32)cc1 (configuration not stated) |  | inactive: 29.5% |
| COc1ccc(NC(=O)c2ccc(OC(F)F)cc2)cc1Cl | inconclusive [activator, partial curve, poor fit] |  |
| O=C(c1cc(-c2ccc(Cl)c(Cl)c2)on1)N1CCN(c2ccccc2)CC1 | inconclusive [activator, single point] |  |
| Cc1ccc(NC(=O)C(OC(=O)c2cc(C)oc2C)c2ccccc2)cc1 (configuration not stated) | inconclusive [activator, single point] |  |
| Cc1ccc(NC(=O)[C@@H](CC(C)C)NC(=O)[C@@H]2Cc3ccccc3CN2)cc1 | inconclusive [activator, partial curve, poor fit] |  |
| COC(=O)c1cccc(-n2c(C)cc(C=O)c2C)c1C | inconclusive [activator, partial curve, poor fit] |  |
| CCC(N=c1cc(-c2ccc(OC)cc2)oc2ccc(C)cc12)C(=O)O (configuration not stated) | inconclusive [activator, partial curve, poor fit] |  |
| CCOC(=O)c1c(C)oc2c1c(CN1CCN(C(=O)OCC)CC1)c(O)c1ccccc12 | inconclusive [activator, partial curve, poor fit] |  |
| CC(C)NC(=O)N(C)C[C@H]1Oc2ccc(NC(=O)C3CCCCC3)cc2C(=O)N([C@H](C)CO)C[C@@H]1C |  | inactive: 2.49% |
| O=C(COC(=O)/C=C/c1cnc2ccccc2n1)NCC(F)(F)F | inconclusive [activator, partial curve, poor fit] |  |
| COc1ccccc1C(=O)NC(=S)Nc1cccnc1Cl |  | inactive: 11.6% |

| SMILES | Potency | activity change, positive = activation |
| --- | --- | --- |
| O=C(Nc1ccc(OC(F)(F)F)cc1)c1cnc2n(c1=O)CCS2 | inconclusive [activator, partial curve, poor fit] |  |
| CCCN(CCC)Cc1c(C(=O)N/N=C/C(C)=C\c2ccccc2)nnn1-c1nonc1N |  | inactive: 6.8% |
| COc1cc(-c2nc(-c3ccccc3)c(-c3cccs3)[nH]2)cc(OC)c1O |  | inactive: -4.93% |
| c1ccc(CSc2nnc(-c3cccnc3)o2)cc1 | inconclusive [activator, partial curve, poor fit] |  |
| CN(C)c1ccnc(Nc2ccc(O)cc2)c1C#N |  | inactive: -3.69% |
| O=C(c1ccc([N+](=O)[O-])s1)N1CCCc2ccccc21 | inconclusive [activator, partial curve, poor fit] |  |
| COc1ccc(NC(=O)c2csc3c2CCCC3)cc1 | inconclusive [activator, full curve, poor fit] |  |
| O=C(Nc1ccc(Cl)c(S(=O)(=O)N2CCOCC2)c1)c1cc(-c2ccccn2)nc2ccccc12 |  | inactive: -3.15% |
| CN(C)c1ccc(/C=N/NC(=O)c2ccc3c(c2)OCCO3)cc1 | inconclusive [activator, full curve, poor fit] |  |
| CC1=CN2C(=N)/C(=C/c3cn(CCCOc4ccccc4C)c4ccccc34)C(=O)N=C2S1 | inconclusive [activator, partial curve, poor fit] |  |
| O=C(Nc1ccccc1C(=O)Nc1ccncc1)c1cccc([N+](=O)[O-])c1 | inconclusive [activator, partial curve, poor fit] |  |
| CN(C)c1ccc(C(=O)NCC2CCCO2)cc1 (configuration not stated) | inconclusive [activator, partial curve, poor fit] |  |
| O=C1C2C3CCC(C3)C2C(=O)N1Cc1ccccc1 (configuration not stated) |  | inactive: 2.87% |
| Cc1csc(NC(=O)c2cc(=O)[nH]c3ccccc23)n1 |  | inactive: 0.325% |
| O=C(NC1CCCCC1)N(Cc1nc2ccccc2c(=O)[nH]1)C1CCCCC1 | inconclusive [activator, single point] |  |
| CCC(=O)Nc1ccc(N2CCOCC2)c(S(=O)(=O)Nc2ccc(Cl)cc2)c1 |  | inactive: -9.39% |
| CC1(C)CC(=O)c2sc(NC(=O)c3ccc4ncsc4c3)nc2C1 |  | inactive: 7.64% |
| c1ccc(COc2ccc(CN3CCN(c4ccccn4)CC3)cc2)cc1 | inconclusive [activator, partial curve, poor fit] |  |
| CCOc1ccc(S(=O)(=O)N2CCN(C(=O)c3cc(C4CC4)nn3-c3ccccc3)CC2)cc1 |  | inactive: 5.18% |
| Nc1nc(NCCO)nc(NC2CCCCC2)c1[N+](=O)[O-] |  | inactive: -0.603% |
| O=C(CC(SCCO)c1ccc2c(c1)OCO2)c1cccs1 (configuration not stated) | inconclusive [activator, full curve, poor fit] |  |
